In all, about 360,000 compounds went through this assay and about 2,600 (0.72%) were called active. Inconclusive means that the source gave no clear call. Such entries were picked first, then a sample of the others. Calls follow the shape of the dose curve; as a rule, active = well fitted inhibition curve with a large enough effect; inconclusive = small, poorly fitted or top-dose-only effect; inactive = no such curve, though single readings can be large or run the other way. Potencies of inconclusive entries are doubtful fits and often do not repeat.
test: Primary qHTS for Inhibitors of ATXN expression; conditions: HEK-293 ATXN2-luciferase reporter, luminescence, 24 h; activity change, negative = inhibition: at 57 µM (top of the series); also: nearly all actives have a fitted effect of over 55% in size
Procedure, shortened: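 qHTS (up to 57 uM final) was run with 24 h compound exposure of reporter cells at 37 °C. Each well was multiplexed: SteadyGlo luminescence measured ATXN2-luciferase expression after a fluorogenic Gly-Phe-AFC viability readout (25 uM final).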
% is scaled to controls: 0 for no effect and ±100 for the full control effect; potency is read from the fitted curve at half-maximal effect; tags tell the direction and shape of the fitted curve.

Activity change, negative = inhibition, inactive:
COc1ccc(NC(=O)C(c2ccc(OC)cc2)N(Cc2ccco2)C(=O)CC2NC(=O)NC2=O)cc1 (centres undefined) -10.9%, Cc1c(C(=O)OC(C)C)sc(N)c1C(=O)OC(C)C 16.1%, O=C(Nc1nccs1)C1CCN(S(=O)(=O)c2c(Cl)cccc2Cl)CC1 -9.48%, Cc1cc(=O)oc2cc(OCC(=O)OCC(=O)N(C)C3CCS(=O)(=O)C3)ccc12 (centres undefined) -2.46%, CN(CC(=O)Nc1ccc(F)c(F)c1F)C(=O)CCN1C(=O)C2CCCCC2C1=O (centres undefined) 4.63%, Cc1ccc(N(CC(=O)NCc2ccccc2Cl)S(=O)(=O)c2cccs2)cc1 2.84%, CCN(CC)S(=O)(=O)c1ccc(OC)c(NC(=O)CSc2cc(Cl)ccc2Cl)c1 11.3%, CCOc1ccc(-c2cc3nc(C4CCN(C(=O)OC(C)(C)C)CC4)c(C(=O)O)cn3n2)cc1 10.8%, CC(C)=CC(=O)OCc1cc([N+](=O)[O-])cc2c1OCOC2 33.6%, Cc1cscc1-c1cc2nc(NCCCN(C)C)n(C)c(=O)c2s1 -17.4%, COc1cc(/C=C/C(=O)O)cc(OC)c1O 6.94%, O=c1c2cc(NC(=S)NCCN3CCCCCC3)ccc2nc2n1CCCCC2 -16%, COc1ccccc1CNS(=O)(=O)c1ccc(-n2cccn2)cc1 -12.4%, Cc1cccc(-c2nc(SCc3cc(=O)c4cccc(F)c4[nH]3)n[nH]2)c1 -33.9%, CCOC(=O)c1c(NC(=O)c2cc(=O)c3cc(Cl)ccc3o2)sc(C)c1C 9.49%, CN(C(=O)COC(=O)CCCN1C(=O)c2cccc3cccc(c23)C1=O)C1CCS(=O)(=O)C1 (centres undefined) -9.27%, Cn1c(SCc2ccccc2)nc(C(F)(F)F)cc1=O 7.1%

Activity change, negative = inhibition, inconclusive:
O=C(Nc1ccccc1OCc1ccccc1)c1ccccc1Br -42.9% [inhibitor]

Potency, inconclusive:
O=C1c2ccccc2-c2onc3c(N4CCN(CCO)CC4)cc(N4CCN(C(=O)c5ccco5)CC4)c1c23 39.8 µM [inhibitor, single point], Cc1c(CCC(=O)NCCCn2ccnc2)c(=O)oc2c(C)c3occ(C(C)(C)C)c3cc12 39.8 µM [inhibitor, single point], NC(c1csc(Nc2ccc(C(F)(F)F)cn2)n1)C1CCCCC1 (centres undefined) 39.8 µM [inhibitor, single point], O=C(Nc1ccc(Cl)c(C(F)(F)F)c1)C1Cc2c(-c3ccc4c(c3)OCO4)ccnc2O1 (centres undefined) 25.1 µM [inhibitor, single point], CCc1nn2cc(C(=O)c3cc(Cl)ccc3O)cnc2c1-c1ccc(F)cc1 26.7 µM [inhibitor, partial curve, poor fit], Cc1nc(NCC(c2ccccc2)N(C)C)c2c(C)c(C)sc2n1 (centres undefined) 15.8 µM [inhibitor, partial curve], Cn1c(=O)c2c(nc(CN3CCN(Cc4ccccc4)CC3)n2Cc2ccc(F)cc2)n(C)c1=O 33.6 µM [inhibitor, single point], COc1cccc(C(=O)N2CCN(c3nc4cc(C)cc(C)c4cc3C#N)CC2)c1 28.2 µM [inhibitor, single point], COc1ccc(C(=O)C(CN2CCOCC2)c2ccccc2)cc1 (centres undefined) 31.6 µM [inhibitor, single point], O=C(/C(=N/N=C/c1ccc(O)c(O)c1O)c1ccccc1)c1ccccc1 15.8 µM [inhibitor, partial curve, poor fit], O=C(CC1C[C@H](C(=O)N2CCCCC2)[C@@]2(CCc3ccccc3)c3[nH]c4ccccc4c3CCN2C1=O)NCc1ccco1 (some centres undefined) 35.5 µM [inhibitor, single point], C[C@H](CO)N1C[C@H](C)[C@@H](CN(C)C(=O)Nc2ccc(C(F)(F)F)cc2)Oc2c(NC(=O)Nc3ccc4c(c3)OCO4)cccc2C1=O 39.8 µM [inhibitor, single point], Cc1cccc(C)c1OCC(=O)N(Cc1cccs1)C1CCS(=O)(=O)C1 (centres undefined) 29.9 µM [inhibitor, single point], Cn1c(=O)n(C)c2cc([N+](=O)[O-])c(N3CCN(C(=O)c4ccccc4Br)CC3)cc21 25.1 µM [inhibitor, single point], CCn1c(SCC(=O)Nc2ccc(C(C)=O)cc2)nc2c([nH]c3ccccc32)c1=O 39.8 µM [inhibitor, single point], CCOC(=O)c1ccc(NC(=O)CC2C(=O)N(c3ccc(F)cc3)C(=O)N2Cc2ccc(C)cc2)cc1 (centres undefined) 25.1 µM [inhibitor, partial curve, poor fit], CCOC(=O)[C@]12CCC=C1N(Cc1ccc(Cl)cc1Cl)C(=O)[C@H](CC(=O)NCc1ccc(OC)c(OC)c1)C2 39.8 µM [inhibitor, single point], Cc1ccc2nc(C3CCCN(C(=S)Nc4cccc(C)c4C)C3)[nH]c2c1 (centres undefined) 35.5 µM [inhibitor, single point], CCOc1cc(C2Sc3ccccc3NC3=C2C(=O)c2ccccc23)ccc1O (centres undefined) 25.1 µM [inhibitor, single point], COc1ccc(C(=O)c2sc(Nc3cc(Cl)ccc3C)nc2N)cc1OC 31.6 µM [inhibitor, partial curve, poor fit], Cc1ccn2c(Nc3ccc4c(c3)OCO4)c(-c3ccccn3)nc2c1 16.8 µM [inhibitor, partial curve], Cc1ccccc1NC(=S)N(Cc1ccccn1)Cc1ccccc1Cl 39.8 µM [inhibitor, partial curve, poor fit], N#Cc1cc2[nH]c3ccccc3c2[n+](-c2ccc([N+](=O)[O-])cc2)c1N 15 µM [inhibitor, partial curve, poor fit], CC(=O)Nc1ccc(-c2ccnc3c2CC(C)(C(=O)Nc2ccc(F)c(Cl)c2)O3)cc1 (centres undefined) 35.5 µM [inhibitor, single point], C/C(=N\NC(=O)c1ccc(Cl)c(Cl)c1)c1ccccn1 3.55 µM [inhibitor, full curve], COc1ccc(CCNC(=O)c2ccc(CS(=O)(=O)c3ccc(Br)cc3)o2)cc1OC 31.6 µM [inhibitor, single point], O=c1[nH]c(CSc2nc3ccccc3[nH]2)nc2c1cnn2-c1ccccc1 31.6 µM [inhibitor, partial curve, poor fit], CC(C)(C)OC(=O)N[C@@H](Cc1ccccc1)c1nnc(S(=O)(=O)Cc2cccc(F)c2)o1 39.8 µM [inhibitor, single point], OCCN1CCN(CC/C=C2/c3ccccc3Sc3ccc(Cl)cc32)CC1 31.6 µM [inhibitor, single point], COc1ccc2[nH]c3c(c2c1)CCN1C(=O)C(CC(=O)NCc2cccc(C(F)(F)F)c2)C[C@H](C(=O)N(C(C)C)C(C)C)[C@@]31C (some centres undefined) 39.8 µM [inhibitor, single point], Cc1cccc(NS(=O)(=O)c2ccc3nc(-c4ccccc4)[nH]c3c2)c1C 15.8 µM [inhibitor, partial curve, poor fit], Cc1cccc(Cn2cccc2CNS(=O)(=O)c2ccc(C)c(C)c2)c1 39.8 µM [inhibitor, single point], CN1c2ccccc2C(=O)N2CCc3c([nH]c4ccccc34)C21 (centres undefined) 21.7 µM [inhibitor, single point], O=C1Cc2c(-c3ccccc3)cc(-c3cccc(Cl)c3)nc2-c2ccccc2N1 17.8 µM [inhibitor, partial curve, poor fit], CC1(C)CC(=O)c2sc(NC(=O)c3cccs3)nc2C1 15.8 µM [inhibitor, partial curve], C=CCN1CN(Cc2ccco2)CNC1=S 3.55 µM [inhibitor, partial curve, poor fit], COc1ccc(-c2cc(C(F)(F)F)nc(S(C)(=O)=O)n2)cc1OC 39.8 µM [inhibitor, single point], CC(C)C[C@H]1CNC(=S)N1C[C@H]1CCCN1C[C@H](Cc1ccc(O)cc1)N1C[C@H](Cc2ccc(O)cc2)N(CCc2ccccc2)C1=S 28.2 µM [inhibitor, single point], O=C(CSc1nnc(-c2cc(-c3cccs3)nc3ccccc23)o1)NC1CCCCC1 39.8 µM [inhibitor, single point], Cc1nc2ccccc2n1CC(O)Cn1c2ccccc2c2ccccc21 (centres undefined) 35.5 µM [inhibitor, single point], Fc1ccc(F)c(Nc2c3c(nc4ccc(Cl)cc24)CCC3)c1 39.8 µM [inhibitor, single point], NC(Cc1ccc(F)cc1)c1csc(Nc2nncc3ccccc23)n1 (centres undefined) 35.5 µM [inhibitor, single point]

Potency, active:
O=C(CCl)N(C/C=C/c1ccccc1)c1ccc2c(c1)OCCO2 1.34 µM, O=C(Nc1ccc(F)cc1F)c1cccc(C(=O)Nc2ccc(F)cc2F)n1 2.51 µM, CC(C)(C)c1cc(C(=O)NN)n(Cc2ccc(Cl)cc2Cl)n1 12.6 µM, Cc1[nH]nc2ccc(-c3cncc(OC[C@@H](N)Cc4ccccc4)c3)cc12 3.06 µM

Source: PubChem BioAssay AID1745845 (National Center for Advancing Translational Sciences (NCATS), 2022)
